# Assay results published in the supplement of paper PMC8728848.
# Some of the results follow.
# B1: CLEC5A (Homo sapiens), Q9NY25 (protein)
# chain: MNWHMIISGLIVVVLKVVGMTLFLLYFPQIFNKSNDGFTTTRSYGTVSQIFGSSSPSPNGFITTRSYGTVCPKDWEFYQARCFFLSTSESSWNESRDFCKGKGSTLAIVNTPEKLKFLQDITDAEKYFIGLIYHREEKRWRWINNSVFNGNVTNQNQNFNCATIGLTKTFDAASCDISYRRICEKNAK
# Tests used:
# Assay in all cases: glycan array binding signal (z-score within array); higher = stronger binding
# Conditions in all cases: glycan notation: IUPAC condensed, linker removed
# [1] = biological target: Fuc(a1-2)Gal(b1-3)[Fuc(a1-4)]GlcNAc(b1-3)Gal(b1-4)Glc
# Outline: (§1)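 Negative Z-scores can be read as non-binding. The Z-score is calculated within each array and then averaged across arrays of one protein sequence at different concentrations or buffers and across linkers. Arrays, 3228 in all, were curated from the Consortium for Functional Glycomics database and kept only where the protein sequence was available.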
# [2] = biological target: Fuc(a1-2)Gal(b1-3)[Fuc(a1-4)]GlcNAc(b1-3)Gal(b1-4)[Fuc(a1-3)]GlcNAc(b1-3)Gal(b1-4)Glc
# Outline: as §1
# [3] = biological target: Fuc(a1-2)Gal(b1-3)[Fuc(a1-4)]GlcNAc(b1-3)[Fuc(a1-2)]Gal(b1-4)Glc
# Outline: as §1
# [4] = biological target: Fuc(a1-2)Gal(b1-3)[Fuc(a1-4)]GlcNAc(b1-3)[Fuc(a1-3)[Gal(b1-4)]GlcNAc(b1-6)]Gal(b1-4)Glc
# Outline: as §1
# [5] = biological target: Fuc(a1-2)Gal(b1-3)[Fuc(a1-4)]GlcNAc(b1-3)[Gal(b1-4)GlcNAc(b1-6)]Gal(b1-4)Glc
# Outline: as §1
# [6] = biological target: Fuc(a1-2)Gal(b1-4)Fuc(a1-3)]GlcNAc(b1-2)Man(a1-3)[Fuc(a1-2)Gal(b1-4)[Fuc(a1-3)]GlcNAc(b1-2)Man(a1-6)]Man(b1-4)GlcNAc(b1-4)GlcNAc
# Outline: as §1
# Fuc(a1-2)Gal(b1-4)Glc = biological target: Fuc(a1-2)Gal(b1-4)Glc
# Outline: as §1
# Fuc(a1-2)Gal(b1-4)Glc6S = biological target: Fuc(a1-2)Gal(b1-4)Glc6S
# Outline: as §1
# Fuc(a1-2)Gal(b1-4)GlcNAc = biological target: Fuc(a1-2)Gal(b1-4)GlcNAc
# Outline: as §1
# [7] = biological target: Fuc(a1-2)Gal(b1-4)GlcNAc(b1-2)Man
# Outline: as §1
# [8] = biological target: Fuc(a1-2)Gal(b1-4)GlcNAc(b1-2)Man(a1-3)[Fuc(a1-2)Gal(b1-4)GlcNAc(b1-2)Man(a1-6)]Man(b1-4)GlcNAc(b1-4)GlcNAc
# Outline: as §1
# [9] = biological target: Fuc(a1-2)Gal(b1-4)GlcNAc(b1-2)Man(a1-3)[Fuc(a1-2)Gal(b1-4)GlcNAc(b1-2)Man(a1-6)]Man(b1-4)GlcNAc(b1-4)[Fuc(a1-6)]GlcNAc
# Outline: as §1
# [10] = biological target: Fuc(a1-2)Gal(b1-4)GlcNAc(b1-2)[Fuc(a1-2)Gal(b1-4)GlcNAc(b1-4)]Man(a1-3)[Fuc(a1-2)Gal(b1-4)GlcNAc(b1-2)Man(a1-6)]Man(b1-4)GlcNAc(b1-4)GlcNAc
# Outline: as §1
# [11] = biological target: Fuc(a1-2)Gal(b1-4)GlcNAc(b1-3)Gal(b1-4)GlcNAc
# Outline: as §1
# [12] = biological target: Fuc(a1-2)Gal(b1-4)GlcNAc(b1-3)Gal(b1-4)GlcNAc(b1-2)Man(a1-3)[Fuc(a1-2)Gal(b1-4)GlcNAc(b1-3)Gal(b1-4)GlcNAc(b1-2)Man(a1-6)]Man(b1-4)GlcNAc(b1-4)GlcNAc
# Outline: as §1
# [13] = biological target: Fuc(a1-2)Gal(b1-4)GlcNAc(b1-3)Gal(b1-4)GlcNAc(b1-3)Gal(b1-4)GlcNAc
# Outline: as §1
# [14] = biological target: Fuc(a1-2)Gal(b1-4)GlcNAc(b1-3)GalNAc
# Outline: as §1
# [15] = biological target: Fuc(a1-2)Gal(b1-4)GlcNAc(b1-3)[Fuc(a1-2)Gal(b1-4)GlcNAc(b1-6)]GalNAc
# Outline: as §1
# [16] = biological target: Fuc(a1-2)Gal(b1-4)GlcNAc(b1-3)[Fuc(a1-3)[Gal(b1-4)]GlcNAc(b1-6)]Gal(b1-4)Glc
# Outline: as §1
# [17] = biological target: Fuc(a1-2)Gal(b1-4)GlcNAc(b1-6)GalNAc
# Outline: as §1
# [18] = biological target: Fuc(a1-2)Gal(b1-4)GlcNAc6S
# Outline: as §1
# [19] = biological target: Fuc(a1-2)Gal(b1-4)[Fuc(a1-3)]GlcNAc
# Outline: as §1
# [20] = biological target: Fuc(a1-2)Gal(b1-4)[Fuc(a1-3)]GlcNAc(b1-2)Man(a1-3)[Fuc(a1-2)Gal(b1-4)[Fuc(a1-3)]GlcNAc(b1-2)Man(a1-6)]Man(b1-4)GlcNAc(b1-4)GlcNAc
# Outline: as §1
# [21] = biological target: Fuc(a1-2)Gal(b1-4)[Fuc(a1-3)]GlcNAc(b1-2)Man(a1-3)[Fuc(a1-2)Gal(b1-4)[Fuc(a1-3)]GlcNAc(b1-2)Man(a1-6)]Man(b1-4)GlcNAc(b1-4)[Fuc(a1-6)]GlcNAc
# Outline: as §1
# [22] = biological target: Fuc(a1-2)Gal(b1-4)[Fuc(a1-3)]GlcNAc(b1-2)[Fuc(a1-2)Gal(b1-4)[Fuc(a1-3)]GlcNAc(b1-4)]Man(a1-3)[Fuc(a1-2)Gal(b1-4)[Fuc(a1-3)]GlcNAc(b1-2)Man(a1-6)]Man(b1-4)GlcNAc(b1-4)GlcNAc
# Outline: as §1
# [23] = biological target: Fuc(a1-2)Gal(b1-4)[Fuc(a1-3)]GlcNAc(b1-3)Gal(b1-4)Glc
# Outline: as §1
# [24] = biological target: Fuc(a1-2)Gal(b1-4)[Fuc(a1-3)]GlcNAc(b1-3)Gal(b1-4)[Fuc(a1-3)]GlcNAc
# Outline: as §1
# [25] = biological target: Fuc(a1-2)Gal(b1-4)[Fuc(a1-3)]GlcNAc(b1-3)Gal(b1-4)[Fuc(a1-3)]GlcNAc(b1-3)Gal(b1-4)[Fuc(a1-3)]GlcNAc
# Outline: as §1
# [26] = biological target: Fuc(a1-2)Gal(b1-4)[Fuc(a1-3)]GlcNAc(b1-3)GalNAc
# Outline: as §1
# [27] = biological target: Fuc(a1-2)Gal(b1-4)[Fuc(a1-3)]GlcNAc(b1-3)[Fuc(a1-2)]Gal(b1-4)Glc
# Outline: as §1
binder,measurement,setting,value
B1,glycan array binding signal (z-score),[1],0.066
same,glycan array binding signal (z-score),[2],0.837
same,glycan array binding signal (z-score),[3],-0.127
same,glycan array binding signal (z-score),[4],-0.019
same,glycan array binding signal (z-score),[5],-0.428
same,glycan array binding signal (z-score),[6],0.292
same,glycan array binding signal (z-score),Fuc(a1-2)Gal(b1-4)Glc,-0.134
same,glycan array binding signal (z-score),Fuc(a1-2)Gal(b1-4)Glc6S,-0.131
same,glycan array binding signal (z-score),Fuc(a1-2)Gal(b1-4)GlcNAc,-0.165
same,glycan array binding signal (z-score),[7],-0.152
same,glycan array binding signal (z-score),[8],-0.162
same,glycan array binding signal (z-score),[9],-0.096
same,glycan array binding signal (z-score),[10],-0.099
same,glycan array binding signal (z-score),[11],-0.114
same,glycan array binding signal (z-score),[12],-0.047
same,glycan array binding signal (z-score),[13],0.158
same,glycan array binding signal (z-score),[14],0.474
same,glycan array binding signal (z-score),[15],-0.023
same,glycan array binding signal (z-score),[16],-0.172
same,glycan array binding signal (z-score),[17],0.121
same,glycan array binding signal (z-score),[18],-0.131
same,glycan array binding signal (z-score),[19],-0.07
same,glycan array binding signal (z-score),[20],0.679
same,glycan array binding signal (z-score),[21],-0.051
same,glycan array binding signal (z-score),[22],0.008
same,glycan array binding signal (z-score),[23],-0.32
same,glycan array binding signal (z-score),[24],-0.144
same,glycan array binding signal (z-score),[25],-0.189
same,glycan array binding signal (z-score),[26],0.198
same,glycan array binding signal (z-score),[27],-0.32
